Source: the supplement of paper PMC3334620
Whole data set: some 33,000 sequences, median “E-score (-0.5 to 0.5)” near -0.012, cut for the highest 2% near 0.27. This is one part of the list.

biological target: T1, Vhr1 (UniProt P40522); test: PBM E-score (8-mer binding enrichment) (E-score (-0.5 to 0.5)); higher = stronger / more preferred TF binding; most listed sequences are background and not binding sites; details: protein concentration: 200 nM; construct: GST-full length
T1 sequence: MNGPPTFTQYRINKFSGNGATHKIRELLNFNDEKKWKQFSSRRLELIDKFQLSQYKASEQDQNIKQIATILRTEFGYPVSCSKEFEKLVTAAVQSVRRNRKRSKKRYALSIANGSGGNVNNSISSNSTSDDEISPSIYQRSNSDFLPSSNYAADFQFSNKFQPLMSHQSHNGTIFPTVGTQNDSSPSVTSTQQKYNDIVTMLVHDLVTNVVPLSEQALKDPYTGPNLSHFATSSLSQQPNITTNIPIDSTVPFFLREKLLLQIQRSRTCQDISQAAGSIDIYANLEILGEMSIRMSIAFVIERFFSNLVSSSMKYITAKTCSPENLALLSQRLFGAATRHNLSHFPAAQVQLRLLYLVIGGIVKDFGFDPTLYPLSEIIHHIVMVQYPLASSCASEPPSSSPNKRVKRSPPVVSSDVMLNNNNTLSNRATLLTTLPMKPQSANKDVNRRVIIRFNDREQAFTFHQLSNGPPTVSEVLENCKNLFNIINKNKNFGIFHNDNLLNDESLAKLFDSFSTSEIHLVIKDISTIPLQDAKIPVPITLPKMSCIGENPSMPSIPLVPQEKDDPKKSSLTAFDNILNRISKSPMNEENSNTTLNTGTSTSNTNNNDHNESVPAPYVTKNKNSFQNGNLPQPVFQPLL
In short: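 Full-length yeast transcription factors or their DNA-binding domains, GST-tagged and expressed with PURExpress, were applied at about 100-200 nM to universal all-10-mer Agilent arrays. These arrays had been made double-stranded by primer extension on fresh or once-stripped slides. Detection used fluorescent anti-GST, normalisation used masliner, and E-scores for ungapped eight-base words pooled with reverse complements came from the Universal PBM Analysis Suite.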

Sequence | PBM E-score
CCCTTTCG | -0.113
AACTTCAC | -0.164
AGGCTAGC | -0.175
AGTTCTAG | -0.127
AGTCATAG | 0.407
TAAGAGAA | -0.285
TGAACACA | 0.0277
GATGGCTA | 0.166
CGAACAAC | 0.00816
ATAATACA | 0.277
CGTCAGCC | 0.044
GATGAACC | 0.215
ATAGTCCG | -0.0873
GATGGGCC | -0.117
AGAGAGGA | -0.0961
ATTTCTGC | -0.0589
CTTAAGCA | -0.134
GCCGTACA | 0.064
CCCGCATA | 0.208
AAAGAGTT | -0.125
AAACAACC | -0.0239
GTTAGAAA | -0.161
CCGCCAAC | 0.163
GTGAGAAA | -0.189
CCACGGGG | 0.105

Sequence | PBM E-score
ACCGGTAA | -0.011
GTGTCGTA | 0.257
GAGGAGGA | -0.0769
CCCTGCCG | -0.0838
AATTATTG | -0.0419
CTCTCAGA | -0.297
ACTCGTGG | 0.124
CAGATAAC | 0.132
ACCGTTAG | -0.144
AGCCAATG | 0.117
AATATGAC | 0.265
CCTATTAA | -0.142
CGGACAGA | -0.0387
GTGCGTCA | -0.0481
CAACTAGC | 0.131
CTTTTAAC | -0.314
GTGCCGTA | 0.0336
GGTACGCA | 0.101
TAGATTCA | -0.0459
CCCGGACA | 0.00629
ATCCAGCC | 0.00924
CTTATGTA | -0.0772
TAACGTAA | -0.0343
ACACGCGA | 0.131
AGACTGAA | -0.0932

Sequence | PBM E-score
CCCGTTCG | -0.0578
ACCTCCAT | 0.0255
AACTTGGT | 0.0366
AAAGTCCG | -0.264
ACGCCTAG | -0.22
AAACGGTT | -0.184
CGGGTCAC | 0.185
CGTATCAG | 0.103
AGAATCGA | -0.13
CACGAGAC | 0.175
CCGAACTA | 0.0691
ATTCAGAG | 0.118
GTCGGTCA | -0.0541
CCGGTAGC | -0.00183
CTCAGTTA | -0.0388
CGAAGAAC | 0.0807
AGTCTCTA | 0.0197
AATTAGTA | 0.146
GTGCGAGA | 0.138
CGGTCGAG | -0.00746
CTCTCTCC | -0.0621
TGATGAAA | -0.112
GCAGGAAA | -0.0422
ACACCTCG | -0.0149
GAGGACGA | 0.104

Sequence | PBM E-score
ATTGCACG | 0.159
CTCCCTGC | -0.0434
ATAAGCAA | -0.0687
TGAGTACA | 0.245
AAGGCACT | -0.122
TGAGACAA | -0.141
ATGCGGTG | 0.119
CCTTGAAA | -0.246
GAACCATA | 0.215
CTCATTAA | -0.0654
TCATTGGA | 0.0126
CCCTATGA | 0.00492
CCATTGCG | -0.0348
AGGGGTCG | -0.0826
CTGCTGAA | -0.0748
CTGTCGTC | -0.0585
GACCAGCC | 0.0698
AGCAGCAC | -0.0532
TACAACTA | 0.115
ATGAAACA | -0.0183
AGAGTAAG | -0.0559
CCGTGCAA | 0.028
GGATGACC | 0.0126
AACACTAT | 0.136
AGTGTCAC | 0.175

Sequence | PBM E-score
GCTTTATA | -0.261
GCAATAAC | 0.0283
GACCGACA | 0.00884
ATAGTATA | 0.236
AATAGGAC | -0.0932
AATCGTAC | 0.181
CAGTCAGC | 0.232
CTTCAAAA | -0.234
AAAATGGA | 0.0297
ACTCAATA | 0.257
GAATCGAA | 0.129
CATGTACG | 0.123
ACGTGACA | -0.197
ACTGGACA | 0.0475
GACCGAGC | 0.0283
ACTACTCT | 0.218
ACACCGAA | 0.149
AGCGTCTA | -0.208
GTCCGTCA | -0.00519
AGAAACCT | -0.119
CAGCGTTC | -0.0437
AATGTATA | 0.0845
GCATGGAA | 0.0657
CAATCTCC | 0.0739
AACCCGAC | -0.0332

Sequence | PBM E-score
AAGTGACT | 0.226
CCTGGTGA | 0.204
ACAGCAGT | 0.095
AAACTCAA | 0.017
CGAAGCGA | -0.0701
ATGTTTCC | 0.0559
CGTGGGTC | 0.236
AGAGGGAC | -0.219
GCCAGAGC | -0.25
GGCGCAAA | 0.224
AGCCCAAA | 0.197
CCCGCCAA | 0.126
CGGGCGGC | 0.0949
CTAGATTC | -0.168
CTAACTCA | -0.0545
ATCGAACA | -0.1
CGGATGGC | -0.0241
ACATTTTA | -0.133
GCGTTCGA | -0.0474
GCGCGGAC | 0.0481
GTAATTTA | -0.0559
CCCTGGTC | -0.147
CCCAATGC | -0.144
ACCTGAAT | 0.111
ACCAAAGG | -0.197

Sequence | PBM E-score
CGTTTTAA | -0.154
AGACGGAA | -0.215
ACGAATTA | -0.171
TCCCTAAA | -0.19
GAGTATAA | 0.127
AAAGTGAA | -0.114
ATTCGGGC | -0.13
CTACTCAC | 0.258
ACTCCACA | 0.277
AACGGTTG | 0.038
ATACTGGC | 0.149
GAATTCTC | -0.0734
AGAGCCCA | 0.00195
GATCCACC | 0.176
AACGTGGT | -0.0115
GGCTGGTA | 0.0349
CCATCGGG | 0.0113
AGGTGCAG | -0.0428
AGTTGTGC | 0.0078
CCGATTCC | 0.00015
AGTCTATG | -0.0772
ATCAAGCA | -0.0191
